Data taken from patent US20220048996A1 (F STAR BETA, published 2022).

B1: hCD137-mFc-Avi (Fc fusion)
chain: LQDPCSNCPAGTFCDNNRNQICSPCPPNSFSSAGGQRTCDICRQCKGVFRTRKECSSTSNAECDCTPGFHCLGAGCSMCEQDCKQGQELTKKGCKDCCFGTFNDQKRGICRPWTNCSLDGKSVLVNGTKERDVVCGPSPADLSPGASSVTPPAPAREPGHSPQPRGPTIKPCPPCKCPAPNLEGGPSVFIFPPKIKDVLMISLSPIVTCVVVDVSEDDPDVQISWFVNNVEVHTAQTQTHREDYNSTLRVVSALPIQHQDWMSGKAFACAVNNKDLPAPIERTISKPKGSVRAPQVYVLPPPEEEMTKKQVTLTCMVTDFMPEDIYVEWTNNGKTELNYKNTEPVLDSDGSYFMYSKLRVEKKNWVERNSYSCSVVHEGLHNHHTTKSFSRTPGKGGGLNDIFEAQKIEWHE
notes: Dimer; a biotinylated version was used where the text says so; also called human CD137-mFc-Avi; hCD137-mFc-Avi-Bio
B2: hCD137-Avi-His (receptor)
chain: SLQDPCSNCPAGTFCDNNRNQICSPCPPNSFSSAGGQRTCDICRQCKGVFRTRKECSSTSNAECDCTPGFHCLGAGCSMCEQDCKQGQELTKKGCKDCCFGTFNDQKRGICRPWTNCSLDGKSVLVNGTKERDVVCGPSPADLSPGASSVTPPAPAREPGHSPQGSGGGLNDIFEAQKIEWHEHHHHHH
notes: Monomer; also called human CD137-Avi-His

Biological target: T1, human CD137 ligand expressed on DO11.10 cells (human, UniProt P41273)
T1 construct: whole, on cells
Experiment: flow cytometry

T1 sequence (P41273 whole entry): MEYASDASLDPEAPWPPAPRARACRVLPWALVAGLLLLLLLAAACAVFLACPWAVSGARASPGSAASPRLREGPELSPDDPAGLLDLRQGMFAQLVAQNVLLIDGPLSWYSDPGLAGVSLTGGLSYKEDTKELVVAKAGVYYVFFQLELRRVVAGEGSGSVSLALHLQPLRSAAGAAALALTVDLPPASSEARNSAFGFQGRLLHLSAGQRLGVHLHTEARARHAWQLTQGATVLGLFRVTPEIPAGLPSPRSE

Row | Binder | binding result
1 | B1 | binds
2 | B2 | binds
